In patent EP4732851A9, “LINKER, ANTIBODY-DRUG CONJUGATE, AND PREPARATION METHOD THEREFOR” (Fudan University, priority 2024, dated 2025):

How the values were obtained:
NCI-H1373 cells = experiment: Lung cancer NCI-H1373 in vivo model; set-up: species or system Balb/c nude mice; conditions: 10 mg/kg; for tumor growth: once weekly for 2 doses (days 8 and 15), compared to hIgG1-MMAE control group; for P (therapeutic effect): NCI-H1373 model
Method: Lung cancer NCI-H1373 in vivo model: 5x10^6 NCI-H1373 cells were inoculated onto the backs of 6-week-old female Balb/c nude mice. On day 8, when the tumor volume reached ~200 mm^3, the animals were randomly grouped, with 10 tumors per group. Dosing was performed once weekly for a total of 2 doses (on days 8 and 15).

[1] = Pharmacokinetic detection in mice (ELISA of conjugate in serum); format: in vivo, Balb/c mice; conditions: mice, 1 mg/kg intravenous administration
Method: (§1) Serum Sample Collection: HER2-NDC 1 mg/kg 1-G07-GGFG-Dxd and 1 mg/kg 1-G07-LP5 were administered via tail vein injection to 8-week-old female Balb/c mice. Approximately 100 µL of blood was collected from the orbit at time points 0 min, 5 min, 30 min, 4 h, 8 h, 24 h, 48 h, 72 h, 96 h, 120 h, 168 h, and 192 h post-adminsteration. The blood was left at room temperature for 30 min, then placed at 4°C for 3-4 h, and centrifuged at 1500 rpm for 15 min to collect the upper serum. ELISA detection of antibody conjugate concentration: The anti-Dxd antibody (Abmax Biotechnology, Cat#05-0191-L, whose affinity for LP5 is similar to that for Dxd) was diluted to 2.5 µg/mL with coating buffer and coated onto ELISA plates, 100 µL/well. The plates were sealed and incubated at 4°C overnight. Unbound antigen was removed, and blocking buffer (3% BSA in PBS) was added, 200 µL/well, for blocking at room temperature for 2 h. After the blocking solution was removed, the 3-fold serially diluted test serum samples and 3-fold serially diluted standard samples (starting from 333.33 ng/mL) were added, 100 µL/well, and incubated at room temperature for 2 h. Unbound antibodies were removed, and HRP-labeled secondary antibody diluted 1:8000 was added, 100 µL/well, and incubated at room temperature for 1 h. After removing unbound secondary antibody, TMB substrate solution was added, 150 µL/well, for color development at room temperature in the dark for about 5 min. ELISA stop solution was added, 50 µL/well, to terminate the color reaction. The OD value at 450 nm was measured, and the drug concentration in the serum was analyzed and calculated. The drug concentrations in the serum at different time points were input into Phoenix software, and a non-compartmental model was used to analyze the drug concentration-time related parameters.
Similarly, TF-NDC 1 mg/kg FD40-GGFG-Dxd and 1 mg/kg FD40-LP5 were administered via tail vein injection to 8-week-old female Balb/c mice. Approximately 100 µL of blood was collected from the orbit at time points 0 min, 5 min, 30 min, 4 h, 8 h, 24 h, 48 h, 72 h, 96 h, 120 h, 168 h, and 192 h post-administeration, processed for detection and analysis.

[2] = Toxicokinetic (TK) detection in cynomolgus monkeys; format: in vivo; conditions: cynomolgus monkeys
Method: as §1
K2477 experiment: 2 cynomolgus monkeys (one male and one female) were administered a single intravenous infusion of 10 mg/kg FD40-GGFG-Dxd (designated as the 10 mg/kg dose group). On day 22, a second intravenous infusion of 30 mg/kg FD40-GGFG-Dxd was administered (designated as the 30 mg/kg dose group). Blood was collected from the forelimb or hindlimb veins before each dose and at 5 min, 1 h, 8 h, 24 h, 48 h, 72 h, 96 h, 120 h, 168 h, 240 h, 336 h, and 504 h after each dose to prepare serum. Pharmacokinetic detection was performed using the method described in Example 14.
K2504 experiment: 2 cynomolgus monkeys (one male and one female) were administered a single intravenous infusion of 10 mg/kg FD40-LP5 (designated as the 10 mg/kg dose group). On day 22, a second intravenous infusion of 30 mg/kg FD40-LP5 was administered (designated as the 30 mg/kg dose group). […]

HPAF-II cells = experiment: Pancreatic cancer HPAF-II in vivo model (TF-Topo1 inhibitor NDC); set-up: species or system Balb/c nude mice; conditions: 10 mg/kg single dose on day 7; for tumor growth: compared to hIgG1-MMAE control group
Excerpt: Pancreatic cancer HPAF-II in vivo model: 5x10^6 HPAF-II cells were inoculated onto the backs of 6-week-old female Balb/c nude mice. On day 7, when the tumor volume reached ~150 mm^3, the animals were randomly grouped for treatment, with 10 tumors per group, receiving a single dose.
Similar pancreatic cancer HPAF-II in vivo model: on day 6, when the tumor volume reached ~200 mm^3, the animals were randomly grouped for treatment, with 10 tumors per group, receiving a single dose.

Row | Molecule | tumor growth (NCI-H1373 cells) | P (therapeutic effect) (NCI-H1373 cells; once weekly for 2 doses) | mean AUC0-t [1] | mean Cmax [1] | mean MRTlast [1] | mean T1/2 [1] | mean AUC0-t ([2]; 10 mg/kg intravenous administration) | mean AUC0-t ([2]; 30 mg/kg intravenous administration (second dose on day 22)) | tumor suppression on day 32 (17 days after the last dose) (NCI-H1373 cells; once weekly for 2 doses) | therapeutic effect compared with FD40-LP1 (HPAF-II cells) | tumor growth (HPAF-II cells)
1 | FD40-GGFG-Dxd: TF-NDC of FD40 prepared with the known linker (GGFG-Dxd), DAR=4.0 (conjugate) QVQLVESGGGLVKPGGSLRLSCTASETISSTYIMGWHRQAPGKGRELVAVISGDGVTHYADFVKGRFTISRDNAKNTVYLQMNFLRAEDTAVYYCYAAGRWNHWGQGTMVTVSS[letters of human IgG1 Fc with C220S (EU numbers) not shown] | significantly inhibited tumor growth | 0.06 | 272.88 µg·h/mL | 16500 ng/mL | 34.92 h | 45.56 h | 4725.19 µg·h/mL | 14822.3 µg·h/mL | – | – | –
2 | FD40-LP6 (conjugate) QVQLVESGGGLVKPGGSLRLSCTASETISSTYIMGWHRQAPGKGRELVAVISGDGVTHYADFVKGRFTISRDNAKNTVYLQMNFLRAEDTAVYYCYAAGRWNHWGQGTMVTVSS[letters of human IgG1 Fc with C220S (EU numbers) not shown] | significantly inhibited tumor growth | – | – | – | – | – | – | – | maintained excellent tumor suppression effects | superior to that of FD40-LP1 | significantly inhibited tumor growth
3 | FD40-LP1 (conjugate) QVQLVESGGGLVKPGGSLRLSCTASETISSTYIMGWHRQAPGKGRELVAVISGDGVTHYADFVKGRFTISRDNAKNTVYLQMNFLRAEDTAVYYCYAAGRWNHWGQGTMVTVSS[letters of human IgG1 Fc with C220S (EU numbers) not shown] | significantly inhibited tumor growth | < 0.001 | – | – | – | – | – | – | – | – | significantly inhibited tumor growth
